T1: UNK ZnF1-3 (human, UniProt Q9C0B0 31-174)
T1 sequence: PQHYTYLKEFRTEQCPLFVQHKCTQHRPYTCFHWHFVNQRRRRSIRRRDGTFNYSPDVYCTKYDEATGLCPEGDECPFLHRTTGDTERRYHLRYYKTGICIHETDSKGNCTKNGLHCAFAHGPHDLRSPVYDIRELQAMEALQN

B1: chr14:66974463:66974464:+_ENSMUSG00000022044_ENSMUST00000074523|mus_hu|mus_mus_mus_hu_False|48_88 (ssRNA)
RNA: GGGAGUUCUACAGUCCGACGAUCUUGUAGGACGACUUAUUCAGGGGAUCAGACAAGAAGCAGGAGCAGAACAAGGACACCAGCGGGAGUUCCUUCAUCUUCUCUUUGUAGGCAGCAAGGGUCAUGUUUCUGGGAUCUGGUGGCCAACAGAGGAUUGAGCAUCA
B2: chr6:170627217:170627218:+_ENSG00000112584_ENST00000537664|hu_hu|motif|central (ssRNA)
RNA: GGGAGUUCUACAGUCCGACGAUCGUUACCUUUUUUGUCAAAGUUCUCUUUUACAGAGGUGUAGGACGAUAAGCAUUUGUACCGGAAGCUUUCAAACAUGCCCUCUGGGAUUAUGUCGUUGCCAAGGAGGCAGGCCAGAAGAGGCAACAGAGGAUUGAGCAUCA
B3: chr10:84137372:84137373:+_ENSMUSG00000034453_ENSMUST00000077175|mus_mus|motif|central (ssRNA)
RNA: GGGAGUUCUACAGUCCGACGAUCGUAAGAGAGCUCUUCUCCACAUAAUAAAUUCACAUCUUCUACUCCCAAGUUCCCAGCGGACUUAAUAAUGGGUCCAUCUUCCAUGUCAGUUGUUAUAUGUGUCAUGAGGGCCAAGUUCUUCAACAGAGGAUUGAGCAUCA
B4: chr7:7679991:7679992:-_ENSG00000106399_ENST00000396682|hu_hu|hu_hu_hu_mus_False|28_58 (ssRNA)
RNA: GGGAGUUCUACAGUCCGACGAUCUGGGAUGAAUCUUUUCCAGCUUCCCCACGAAGCACACGGGCCGGUCGAUAUACUGAGCUAGCAUGCUGGCGUUGACGCGCGCUCUGGGCAAGUGCAUUAUGUCCUCCAUGAUUCUGCCGCCAACAGAGGAUUGAGCAUCA
B5: chr1:58468927:58468928:-_ENSMUSG00000026034_ENSMUST00000148330|mus_mus|mus_mus_mus_hu_False|1_48 (ssRNA)
RNA: GGGAGUUCUACAGUCCGACGAUCAAUUACUGAAAAAGAUGUUCAUUACCUUAGCUAUGUACUUAAUGAACCAAAUUACCCAAACAACAUAAAAUGUGCAAUAUAAAAAUGUUAAGAAUUUACAAAGCUGUACAAAAAGACUGACAACAGAGGAUUGAGCAUCA
B6: chr16:32614670:32614671:+_ENSMUSG00000022797_ENSMUST00000023486|mus_mus|motif|central (ssRNA)
RNA: GGGAGUUCUACAGUCCGACGAUCUGCAGCCAGUUUCAUCUCCACAUGACUGUUAUCUCCAUCUACUUGCCGAGCAAGGCGGAACCGGGUGUAUGACAAUGGUUCCCCACCAAACAAGUUAGAGAAUGCUGAUCUGGCUUGAUCCAACAGAGGAUUGAGCAUCA
B7: 55044860_55044980_3730_CDS_ENSMUSG00000025982_ENSMUST00000027127|mouse|control|control (ssRNA)
RNA: GGGAGUUCUACAGUCCGACGAUCUACAUGGGGAGAUGUCUCAAACACAUUAGGCCACACAUAGUUCAGUAAGUGAUUCAGAGAAUCCUCACAGCCAAAUCCGUAAACACCAAGUGACAUGUGCUGCACCACUGCACUCGCUGUCAACAGAGGAUUGAGCAUCA
B8: chr7:54106310:54106311:+_ENSMUSG00000063229_ENSMUST00000048209|mus_mus|FALSE|FALSE (ssRNA)
RNA: GGGAGUUCUACAGUCCGACGAUCCCUCUCUCCCAUCAGGUAACGGAACCGCGCUGAAUCCAGAUUGCAACCACUUCCAAUUACUCGGUUUUUGGGAAAGCCACUGAUUUUCCAAGCCACGUAGGUCAAGAUAUCCACUGGAUUCAACAGAGGAUUGAGCAUCA
B9: chr19:8913615:8913616:-_ENSMUSG00000071658_ENSMUST00000096259|mus_hu|mus_mus_mus_hu_False|1_1 (ssRNA)
RNA: GGGAGUUCUACAGUCCGACGAUCAGGGUACCAAAACCUUCUGCCUGAAAUGGGUGCCCCACCCAGUAGGGAGUUGCAGCUGAAAGUAUCUGAUGCAGAAGCAGUGACUAUACGAAAGGAGGCCCCUGGGGAGGGCCCGAGAUCCAACAGAGGAUUGAGCAUCA
B10: chr1:213178640:213178641:-_ENSG00000174606_ENST00000366962|hu_hu|FALSE|FALSE (ssRNA)
RNA: GGGAGUUCUACAGUCCGACGAUCUGCUACGCAGAUUGCAGGGCAGGCAGCAUAUGGAAUUUUGGGCUGUAAGAGUAAAACUAAUCCAACAUUGUCUCUGUCCAACAGAGAAAUAUCAGGGCGGAAGAAUUCCACUGGGUUCACCAACAGAGGAUUGAGCAUCA
B11: chr3:176740097:176740098:-_ENSG00000177565_ENST00000430069|hu_mus|hu_hu_hu_mus_True|18_18 (ssRNA)
RNA: GGGAGUUCUACAGUCCGACGAUCUGUUUUGUAUACCACAAAAGGAGGCACUUUCAGUAUCUGCAAAAGGUGUUUAGUCCUAAAACAUACUCACCUAGAGGAUAACUCAGGAAAACAUCAAUACAAUCUCUAAGACCUACUCCACAACAGAGGAUUGAGCAUCA
B12: chr3:95657547:95657548:-_ENSMUSG00000015748_ENSMUST00000015892|mus_hu|motif|central (ssRNA)
RNA: GGGAGUUCUACAGUCCGACGAUCCUUUGACAGUGCCAUUUUUCAGGAAAAAGAGAACAAUAGCUCAAACAGGACUCAAUACGGCACCUCACAAACUUCAGCCCCUGAGACGGAGCCCGAACGUUACACCGGAACCGGAAACCUCAACAGAGGAUUGAGCAUCA
B13: chr11:50112788:50112789:-_ENSMUSG00000020368_ENSMUST00000020637|mus_mus|motif|central (ssRNA)
RNA: GGGAGUUCUACAGUCCGACGAUCGUCGGAUGUCAUGGACCAGAGCUCCAAACCAAUAGCACUGAAAGGAGUCAUCUUAAAAGGUUCGGGGUCUUCAAAGAAAUCUGGAUUUGGUAUUUUCCUUGGUUUCCAGAUUCCCUGGUACAACAGAGGAUUGAGCAUCA
B14: chr17:57724784:57724785:+_ENSG00000141367_ENST00000269122|hu_hu|motif|central (ssRNA)
RNA: GGGAGUUCUACAGUCCGACGAUCUUUCAUUUCAAUGUUAAAAAUCUGAAGAGUUUUCCCAGCUUUCAGUGCAAUUACUUUGCGGGCUGGAUUCAUGAUGGCGCUGUCUGCUGAAAUUGGUCUUCGAAUUGGAUUACUUGGGUCCAACAGAGGAUUGAGCAUCA
B15: chr12:80258887:80258888:-_ENSMUSG00000021124_ENSMUST00000055262|mus_hu|motif|central (ssRNA)
RNA: GGGAGUUCUACAGUCCGACGAUCGUUUACCAGUCUACUCUUGGUACGUUCUAACUGGUCUCGUUGUUCCCCCAGCUCUUCGGUGAUUUCUGAGCCAAUCUGGUCAGUCUCUGUGGCAAUCCGAUGAGAACGUUCAAUACUUUGCAACAGAGGAUUGAGCAUCA
B16: chr1:155330963:155330964:-_ENSMUSG00000042699_ENSMUST00000042141|perfect_dup|motif|central (ssRNA)
RNA: GGGAGUUCUACAGUCCGACGAUCCCCUUCUACUCGAACCUCACACAUGAAUUUCUGUCUGUUUUUGUUUCCUACUGCUCGGAUUUCAUAGGCUGGAGUCAUCUUCCUUUUGCCACACCAGGCAUACAGAAAAUUUUUAAUGUCCAACAGAGGAUUGAGCAUCA
B17: 220357383_220357503_2049_CDS_ENSG00000118873_ENST00000358951|human|control|control (ssRNA)
RNA: GGGAGUUCUACAGUCCGACGAUCAGAGAAUGGUGUGUCUAAAUGAAAAUCAAGGGAAUUUAAUUGACUGACAGACUCAUAGAGUUGCAGCAGUUUUAGUUUAUUGGCACAAAACUGUAGCAAUCCUUCAUCAACAGACUCAAGCAACAGAGGAUUGAGCAUCA
B18: chr2:217001844:217001845:+_ENSG00000079246_ENST00000392132|hu_hu|hu_hu_hu_mus_False|78_78 (ssRNA)
RNA: GGGAGUUCUACAGUCCGACGAUCACCAACUUGAGGAUUAGAUCUUUUGUCAUAAGCAUAUCGAACUAUGGCGACCAUGUUUAACUCAUCCAAAGCAUGAACGAGAGAGGAAAGGGCAACAGCUGCCGCCUCAUCAUCCUUUGCCAACAGAGGAUUGAGCAUCA
B19: chr1:109605286:109605287:-_ENSG00000197780_ENST00000461096|hu_mus|hu_hu_hu_mus_True|78_108 (ssRNA)
RNA: GGGAGUUCUACAGUCCGACGAUCAAGAACAAUAACAACAUUCAGUAACCUCUUUAACAAUUGUAAUCCUUAUUAUAAGCUAAGCAGAAUAAUAAUUUAAUACCGUAAGUGAACUACACACAAAGCCUGAACCGCGAAAAUGGUCAACAGAGGAUUGAGCAUCA
B20: chr2:144966258:144966259:-_ENSG00000121964_ENST00000344850|hu_mus|FALSE|FALSE (ssRNA)
RNA: GGGAGUUCUACAGUCCGACGAUCUGUGCGUGCUCUCCAGUGCCAUUUCUUUGCAGGAAGAGUGUACAACACGCAGUCAUCUAAUUCUUCUCGGAGCAGCUCUACCAGCUGUCGAUGGGAGCCUCCAUAAAAUGCCUCGAUGAUCAACAGAGGAUUGAGCAUCA
B21: chr10:106022761:106022762:+_ENSG00000148834_ENST00000369713|hu_mus|FALSE|FALSE (ssRNA)
RNA: GGGAGUUCUACAGUCCGACGAUCGAAUUCGUUCUCCAACGCUUCCCUUAGGUUCGGAGAGUCUUCCUUUCUCUUCGACCUAACAAAGCUUGCAAUCAAAGGCGGCACCUUAGAGAAUGACUCAAGGGUCAUCUUCUGACGUGCCAACAGAGGAUUGAGCAUCA
B22: chr12:90018129:90018130:-_ENSG00000070961_ENST00000261173|hu_hu|FALSE|FALSE (ssRNA)
RNA: GGGAGUUCUACAGUCCGACGAUCCUCAGCAAGCCAUGGUCUUUUCUGAACCCAGAAGGUGUCAAUGACAAAAUAUAAUACUAGAAUGAUAACUGUGAUGGCAGACAUCAACAGACCUGCUUUGCCAAUCUGAACAGCCAGUUUCAACAGAGGAUUGAGCAUCA

This is one part of the list.

The target of this experiment is T1, UNK ZnF1-3. Nature of the experiment: nsRBNS (natural sequence RNA bind-n-seq); RBNS binding buffer (assumed for nsRBNS): 25 mM Tris pH 7.5, 150 mM KCl, 3 mM MgCl2, 0.01% Triton X-100, 500 ug/ml BSA, 20 U/ml SUPERase-In, 4 C; UNK is unkempt and MSI1 is Musashi-1; names of the RNAs are library labels; protein concentration not given here; high values mean tight binding.
As to B1, the binding signal came out at 2.09 enrichment R. For B2 the value was 1.18 enrichment R. As to B3, the binding signal was 1.03 enrichment R. Regarding B4, the binding signal worked out at 0.615 enrichment R. Under B5 stands 1.59 enrichment R; under B6, 0.741 enrichment R.

The molecule B7 registered a binding signal of 0.911 enrichment R. For B8 the value was 0.985 enrichment R; for B9, 1.4 enrichment R. For B10 the value was 1.53 enrichment R. For B11 the value was 0.885 enrichment R; for B12, 1.34 enrichment R; for B13, 0.696 enrichment R. Consider B14, for which the binding signal was 0.81 enrichment R. Under B15 stands 0.595 enrichment R; under B16, 0.93 enrichment R; under B17, 0.565 enrichment R. Molecule B18 showed a binding signal of 2.03 enrichment R. For B19 the value was 0.99 enrichment R. Consider B20, for which the binding signal was found to be 0.661 enrichment R. Under B21 stands 0.202 enrichment R; under B22, 1.48 enrichment R.
